Source: the supplement of paper PMC3334620
The full ranking holds about 33,000 sequences; the median of “E-score (-0.5 to 0.5)” is about -0.035, and the highest 2% start at about 0.35. This is one part of the list.

biological target: T1, Pdr3 (UniProt P33200); experiment: PBM E-score (8-mer binding enrichment) (E-score (-0.5 to 0.5)); higher = stronger / more preferred TF binding; most listed sequences are background and not binding sites; details: protein concentration: 200 nM; construct: GST-full length
T1 sequence: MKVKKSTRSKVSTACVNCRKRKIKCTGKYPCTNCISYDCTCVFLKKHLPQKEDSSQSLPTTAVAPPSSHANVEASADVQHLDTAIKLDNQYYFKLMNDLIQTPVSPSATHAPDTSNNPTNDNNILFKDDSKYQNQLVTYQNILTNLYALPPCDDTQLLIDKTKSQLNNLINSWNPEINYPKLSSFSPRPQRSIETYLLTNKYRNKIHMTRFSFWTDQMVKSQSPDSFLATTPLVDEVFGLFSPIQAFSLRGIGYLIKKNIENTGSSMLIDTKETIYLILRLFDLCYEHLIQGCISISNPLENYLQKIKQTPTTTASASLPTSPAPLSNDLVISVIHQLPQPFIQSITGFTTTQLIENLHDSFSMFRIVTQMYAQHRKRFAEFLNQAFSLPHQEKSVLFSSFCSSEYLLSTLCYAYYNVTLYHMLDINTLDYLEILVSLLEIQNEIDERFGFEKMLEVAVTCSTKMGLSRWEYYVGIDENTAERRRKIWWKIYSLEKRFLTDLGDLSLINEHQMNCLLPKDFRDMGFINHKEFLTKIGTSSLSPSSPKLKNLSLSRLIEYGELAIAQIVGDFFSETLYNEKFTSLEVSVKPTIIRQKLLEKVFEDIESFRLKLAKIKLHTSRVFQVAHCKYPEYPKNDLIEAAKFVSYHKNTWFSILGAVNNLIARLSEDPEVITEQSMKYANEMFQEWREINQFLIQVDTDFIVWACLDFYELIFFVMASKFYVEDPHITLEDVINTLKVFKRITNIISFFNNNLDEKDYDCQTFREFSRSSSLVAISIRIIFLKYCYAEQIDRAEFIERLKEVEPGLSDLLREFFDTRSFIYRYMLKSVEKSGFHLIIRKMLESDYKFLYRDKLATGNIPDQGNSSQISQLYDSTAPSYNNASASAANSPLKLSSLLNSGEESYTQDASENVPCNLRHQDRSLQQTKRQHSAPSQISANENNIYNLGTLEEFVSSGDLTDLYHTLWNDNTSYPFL
In short: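 PURExpress in vitro transcription/translation supplied GST-tagged yeast transcription factors, either full-length or DNA-binding domain. Applied at about 100-200 nM to universal all-10-mer Agilent arrays double-stranded by primer extension, the bound protein was detected with fluorescent anti-GST. E-scores, modified Wilcoxon-Mann-Whitney statistics, were given by the Universal PBM Analysis Suite to ungapped eight-base words pooled with their reverse complements after masliner normalisation.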

Sequence	PBM E-score
CAACCGCG	0.369
AACAAGAT	0.106
CGATGCAC	-0.186
AAATCAAT	0.00895
CGGCCCCG	0.224
AGGGTTAC	-0.224
ACGGCCAG	0.0353
AAAGTCAA	-0.0567
AGTTAAAC	-0.181
AACCATGC	0.206
ACTTAGGC	-0.206
ACCCCGTC	0.203
CTGCCAAC	-0.115
GGCCCAAC	-0.0391
GCTCTGAC	-0.188
ACCACATG	-0.0386
CCGGAACA	0.471
TAAATGAA	0.00383
GTGGTTAA	0.0263
GCGGGGAC	0.149
CGTCGTGC	0.0795
AGGTATAA	-0.0545

Sequence	PBM E-score
AATGTAAA	0.0488
ACTAGGGG	-0.0188
TGCCTACA	-0.0198
AGAATGCA	0.141
CGGCATGC	0.351
GTTAGCTA	-0.0596
CCGGAATA	0.437
GTTAAGCA	-0.0593
GCAGACAC	0.0135
ATCAAATG	-0.0599
CCCCTTGA	-0.0434
TAGGTTCA	0.0752
AGCTAGAT	-0.0783
ATAGGAGA	-0.363
GGCCGTAA	0.144
ACTAATCG	0.278
GAGCACGA	0.0924
CGCGCTAG	0.0743
GATGATCA	-0.144
GCCATACA	-0.0619
ATCCACAC	-0.072
TACTTCCA	0.109

Sequence	PBM E-score
AAGTGTCG	-0.0239
CGTCGGTC	0.157
GGTCCCAA	-0.0945
CGACTGGA	-0.0565
CCCCCAGC	-0.28
CATACCGA	-0.0073
AGACCTGC	-0.278
AACCGAAA	-0.0221
AAGACTTA	-0.385
AGTCTGCC	-0.279
GGGCTGTA	-0.156
TACCGGTA	0.103
AGACGATA	-0.0346
AATGCGGA	0.311
CTGAGTCA	-0.057
AACCAAGT	0.00666
ATGTGACC	-0.0228
ATGAGAGA	-0.11
AAGCAGGA	0.0545
CCATATGG	0.132
GGCCTTAA	-0.0743
TCTGCCAA	-0.313

Sequence	PBM E-score
TTCTGCAA	0.0593
ATATGCTC	0.0848
ATACGCAT	-0.00294
CACGGCGG	0.178
CTATACGA	-0.0979
ACCTATCA	-0.061
ACCTAGTA	-0.175
AAGATAAG	-0.106
AATCATCT	-0.101
CCTGGTCA	-0.169
AGATCGTG	-0.174
AAGGCCCA	-0.228
CACGCATG	-0.14
CTGAAGAC	-0.113
CCGAGTAA	0.157
GGTCACAC	-0.36
ACGACTTA	-0.287
GACTGCAC	-0.179
CCAGACAA	-0.125
TACTACGA	-0.0479
